From a collection of fitness landscapes (doi:10.1016/j.celrep.2020.107928)
The full ranking holds about 81,000 sequences; the median of “one-hybrid fitness for binding NBS DNA” is about -0.1, and the highest 2% start at about 0.36. The list shows a part of the results.

B1: Caulobacter ParB omega fusion; a variant is named by its letters at X, in order, B8GW30 (parent)
chain: MESVVVGEPGMSEGRRGLGRGLSALLGEVDAAPAQAPGEQLGGSREAPIEILQRNPDQPRRTFREEDLEDLSNSIREKGVLQPILVRPSPDTAGEYQIVAGERAWRAAQRAGLKTVPIMVRELDDLAVLEIGIIENVQRADLNVLEEALSYKVLMEKFERTQENIAQTIGKSXSHVANXMRLLXLPDEVQSYLVSGELTAXHARAIAAAADPVALAKQIIEGGLSVRETEALARKAPNLSAGKSKGGRPPRVKDTDTQALESDLSSVLGLDVSIDHRGSTGTLTITYATLEQLDDLCNRLTRGI

Variants of: B1
Assay: one-hybrid fitness for binding NBS DNA (the Noc-binding site; scaled: cognate 1, non-cognate 0); higher = stronger binding
Conditions: with NBS DNA site
Outline: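 Selection: bacterial one-hybrid in E. coli USO, HIS3 reporter with the site 19 bp from the promoter, 48 hours at 37°C on M9-minus-histidine plus 0.1 mM IPTG and 5 mM 3-AT. Libraries were Caulobacter ParB with four randomised specificity codons, sequenced on Illumina before and after selection. Fitness is the rescaled log change in variant-to-wild-type read ratio, anchored to the cognate and non-cognate sites.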

one-hybrid fitness for binding NBS DNA, 0.295:
QIGS

one-hybrid fitness for binding NBS DNA, ≤ 0.2:
KTQV
CMIN
RGPQ
TKNM
RGVD
EADT
RCPP
SQVA
HACR
SNDY
PRYA
RFTP
GTSA
IART
DTTV
LKMA
MDPC
QVRP
LMYC
GPLC
FHSV
ILNS
NVET
PAIS
RNQC
QFNS
STEN
GEPK
VALI
PCRI
WPKG
VKSF
DPSG
TPLW
RMGW
LWKM
AWAC
PSIF
TETC
TLRN
NPSC
SARI
LTDP
PAHL
CDVR
MKWG
GPGR
NLQA
FRGR
NRMD
CMKT
TNRV
YGSG
FLQG
TIPV
GACT
MSYN
SRCR
KDIR
VTPL
RNSH
RYGG
QMVL
FLLG
WVKG
QNVK
EYAR
LQQY
SKIR
FLNR
VHSI
KDSD
SRSN
GCQM
MQSG
NFSG
SHLM
GKSD
ISYL
AHDA
YHIP
KVTW
AQWS
IGFS
LTEQ
ENTM
CDVF
QKVN
SLVW
RSHK
LCSW
DHNR
KAKK
PLCL
GQHC
LPAG
TVII
KCYL
QYFC
HKCG
YMDT
YHLS
NSWG
CCFS
TSQW
ICPC
RTCM
EYGR
HTPY
IGAR
MTYW
FEAR
VTTC
SLVL
NYKL
RCCH
QFKW
ILMT
KTTA
GHPT
HNCG
KNAC
LMRF
RFYA
HHLL
TDDR
QESY
HRPK
QSCP
AFQW
VRHK
SSEH
IFTS
NYSE
HPVM
NLCA
RAFG
TCWL
AAEY
LTKA
VWTY
IMMS
VSAK
QKCM
CGRC
CGHR
HVGC
ASPL
EKYF
SCGD
YHQW
SRLG
FMVR
GDSC
MHPS
LRWK
KCTT
TNVW
ITEL
ILMM
FAMR
DKGS
AEHP
HTTK
TARE
VEKP
RLME
RQIN
AFSR
KTPT
RPKC
GYAT
WISW
DSTA
TDFS
HSQP
RKCY
VQFS
PRIV
LPPH
IEDG
PLHM
SFLT
SWQG
NLMC
RYTM
ICYS
VAES
PLTW
QQMF
EATS
WSRP
AIVL
PLKI
FETS
EFKG
IQPG
ELHG
YFAD
LRYP
HSAV
EKHS
QPQS
GKAC
RYFE
MHCG
QTTD
GNAL
RQDI
NLAC
VPWS
PDNV
DASP
LKDA
CMER
QSIG
DMKL
SFER
QPKY
ANCS
RTEV
TLKV
VTPN
AATF
TRFL
QHVW
HANC
VMKS
DGDS
YPTW
LLTS
HMLF
RWMG
SCMG
SMKG
PKNC
CTMR
NIVE
LIRT
PGLD
FQRS
QLIA
RFPM
HLKY
LMPE
HYVG
LFAR
NLDC
SRPS
QTLQ
VCDS
SHET
WMQV
HTNK
FYLF
NLHS
EMAS
HRFG
RLWL
SPSQ
PTQN
AFAL
KLSN
PETS
SCTA
KMAL
TRKF
CPYS
ERRM
LLVR
YALM
YTDR
SKRV
CCIK
VTPC
THLQ
IHFR
GPSW
KNYG
LVRM
ACTL
SVPY
VEDW
IHWS
LPVT
NLPG
TPLS
GVNY
FYAG
VIPL
AAAY
KIFL
ETST
SCDG
TKTQ
KECR
GPCR

one-hybrid fitness for binding NBS DNA, 0.391:
QKET

one-hybrid fitness for binding NBS DNA, 0.302:
MDCR

one-hybrid fitness for binding NBS DNA, 0.407:
QCRI

one-hybrid fitness for binding NBS DNA, 0.449:
QQQT

one-hybrid fitness for binding NBS DNA, 0.277:
QMRE

one-hybrid fitness for binding NBS DNA, 0.2:
RRWI

one-hybrid fitness for binding NBS DNA, 0.596:
QTKK

one-hybrid fitness for binding NBS DNA, 0.403:
RCKH
